Test results published in the antibiotic and cytotoxicity screens of Wong et al. (2023).
This is one part of the list.

Tests used:
[1] = system: HSkMC (human skeletal muscle cells); experiment: cytotoxicity call (relative viability < 0.9); settings: 10 µM
[2] = system: HepG2; experiment: cytotoxicity call (relative viability < 0.9); settings: 10 µM
[3] = system: S. aureus RN4220; experiment: growth inhibition call (relative growth <= 0.2); settings: 50 µM

CC(C)NC(=O)Nc1ccc2c(c1)CC(=O)N([C@@H](C)CO)C[C@@H](C)[C@H](CN(C)S(=O)(=O)c1cccs1)O2
inactive: cytotoxicity call [1] | cytotoxicity call [2] | growth inhibition call [3]

CC(C)(C)[S@](=O)N1Cc2cc(C(=O)N3CCCCC3)nc(-c3cccc(C4=CCCC4)c3)c2[C@@H]1CCO
inactive: cytotoxicity call [1] | cytotoxicity call [2] | growth inhibition call [3]

Cc1nc2n(c(=O)c1CCN1CCC(c3noc4cc(F)ccc34)CC1)CCCC2O (stereo unspecified)
inactive: cytotoxicity call [1] | cytotoxicity call [2] | growth inhibition call [3]

Cc1noc(C)c1NC(=O)N(C)C[C@H]1Oc2ccc(NC(=O)Nc3ccc(C(F)(F)F)cc3)cc2C(=O)N([C@H](C)CO)C[C@@H]1C
inactive: cytotoxicity call [1] | cytotoxicity call [2] | growth inhibition call [3]

COc1ccc(S(=O)(=O)Nc2ccc3c(c2)CC(=O)N([C@H](C)CO)C[C@H](C)[C@H](CN(C)S(=O)(=O)c2cn(C)cn2)O3)cc1
inactive: cytotoxicity call [1] | cytotoxicity call [2] | growth inhibition call [3]

COc1cccc(-c2ccc3c(c2)O[C@H](CN(C)Cc2cncnc2)[C@H](C)CN([C@H](C)CO)S3(=O)=O)c1
inactive: cytotoxicity call [1] | cytotoxicity call [2] | growth inhibition call [3]

COc1ccc(NC(=O)Nc2ccc3c(c2)C(=O)N([C@H](C)CO)C[C@H](C)[C@H](CN(C)Cc2ccc(C(=O)O)cc2)OCCCC[C@@H](C)O3)cc1
inactive: cytotoxicity call [1] | cytotoxicity call [2] | growth inhibition call [3]

Cl.NCCCCCC(=O)O
inactive: cytotoxicity call [1] | cytotoxicity call [2] | growth inhibition call [3]

Cn1cnc(CCNC(=O)C[C@H]2CC[C@H]3[C@@H](COC[C@@H](O)CN3C(=O)Nc3ccc(Cl)cc3)O2)c1
inactive: cytotoxicity call [1] | cytotoxicity call [2] | growth inhibition call [3]

C[C@H](CO)N1C[C@H](C)[C@@H](CN(C)S(=O)(=O)c2cn(C)cn2)Oc2c(NS(C)(=O)=O)cccc2C1=O
inactive: cytotoxicity call [1] | cytotoxicity call [2] | growth inhibition call [3]

COc1ccc2c3c([nH]c2c1)[C@H](CO)N(C[C@]13CN(CCc2ccccc2)C1)C(=O)CN1CCOCC1
inactive: cytotoxicity call [1] | cytotoxicity call [2] | growth inhibition call [3]

C=CC[C@H](CC(=O)NCCO)C(=O)N[C@H](COC(=O)[C@H](CC=C)CC(=O)OC(C)(C)C)c1ccccc1
inactive: cytotoxicity call [1] | cytotoxicity call [2] | growth inhibition call [3]

CCCCC(CC)COc1ccc(-c2nc(-c3ccc(OC)cc3)nc(-c3ccc(OCC(CC)CCCC)cc3O)n2)c(O)c1 (stereo unspecified)
inactive: cytotoxicity call [1] | cytotoxicity call [2] | growth inhibition call [3]

O=C(C[C@@H]1CC[C@@H]2[C@H](COC[C@H](O)CN2S(=O)(=O)c2cccc(Cl)c2)O1)N1CCOCC1
inactive: cytotoxicity call [1] | cytotoxicity call [2] | growth inhibition call [3]

C[C@@H]1CN([C@@H](C)CO)C(=O)c2cc(NS(=O)(=O)c3cn(C)cn3)ccc2O[C@@H]1CN(C)Cc1ccc2c(c1)OCO2
inactive: cytotoxicity call [1] | cytotoxicity call [2] | growth inhibition call [3]

O=C(Cc1n[nH]c(=O)[nH]1)NCc1n[nH]c2c1CCCCC2
inactive: cytotoxicity call [1] | cytotoxicity call [2] | growth inhibition call [3]

NC1(C(=O)O)CCC1
inactive: cytotoxicity call [1] | cytotoxicity call [2] | growth inhibition call [3]

C[C@@H]1CN([C@H](C)CO)C(=O)c2cc(C#CCN(C)C)cnc2O[C@H]1CN(C)C(=O)CN1CCOCC1
inactive: cytotoxicity call [1] | cytotoxicity call [2] | growth inhibition call [3]

NCC[C@@H]1CC[C@H](NC(=O)C2CCCC2)[C@H](CO)O1
inactive: cytotoxicity call [1] | cytotoxicity call [2] | growth inhibition call [3]

CCCCC1=NC2(CCCC2)C(=O)N1Cc1ccc(-c2ccccc2S(=O)(=O)Nc2noc(C)c2C)c(COCC)c1
inactive: cytotoxicity call [1] | cytotoxicity call [2] | growth inhibition call [3]

COc1ccc(NC(=O)N2C[C@@H](O)COC[C@@H]3O[C@@H](CC(=O)NC4Cc5ccccc5C4)CC[C@H]32)cc1
inactive: cytotoxicity call [1] | cytotoxicity call [2] | growth inhibition call [3]

Cc1noc(C)c1NC(=O)Nc1ccc2c(c1)C(=O)N([C@@H](C)CO)C[C@@H](C)[C@@H](CN(C)Cc1ccc(Cl)c(Cl)c1)O2
inactive: cytotoxicity call [1] | cytotoxicity call [2] | growth inhibition call [3]

Cc1cc(O)c2c(c1)C(=O)c1cccc(O)c1C2=O
inactive: cytotoxicity call [1] | cytotoxicity call [2] | growth inhibition call [3]

C[C@H](CO)N1C[C@H](C)[C@@H](CN(C)CC2CCCCC2)OCCCC[C@H](C)Oc2ccc(NC(=O)CCCCCC(=O)Nc3ccccc3N)cc2C1=O
inactive: cytotoxicity call [1] | cytotoxicity call [2] | growth inhibition call [3]

C[C@H]1CN([C@@H](C)CO)C(=O)c2cc(NC(=O)Nc3ccc4c(c3)OCO4)ccc2O[C@H]1CN(C)S(C)(=O)=O
inactive: cytotoxicity call [1] | cytotoxicity call [2] | growth inhibition call [3]

CCCN(C)C[C@H]1OCCCC[C@@H](C)Oc2ccc(NS(=O)(=O)c3cn(C)cn3)cc2C(=O)N([C@H](C)CO)C[C@H]1C
inactive: cytotoxicity call [1] | cytotoxicity call [2] | growth inhibition call [3]

Cc1noc(C)c1NC(=O)N(C)C[C@H]1Oc2ccc(NS(=O)(=O)c3ccccc3)cc2CC(=O)N([C@H](C)CO)C[C@H]1C
inactive: cytotoxicity call [1] | cytotoxicity call [2] | growth inhibition call [3]
